Substitutions are numbered along the chain they refer to. Values belong to the binder of their own block, whether it stands above or below them.
How the values were obtained:
[1] = target: T1, recombinant purified human IL-12 p70 (human, UniProt P29459 23-219); assay: SPR (BIAcore) as in Example 1.1.B, human IL-12p70
T1 construct: Disulfide-linked heterodimer of p35 and p40; also called hIL-12; Hu IL-12
T1 sequence 1: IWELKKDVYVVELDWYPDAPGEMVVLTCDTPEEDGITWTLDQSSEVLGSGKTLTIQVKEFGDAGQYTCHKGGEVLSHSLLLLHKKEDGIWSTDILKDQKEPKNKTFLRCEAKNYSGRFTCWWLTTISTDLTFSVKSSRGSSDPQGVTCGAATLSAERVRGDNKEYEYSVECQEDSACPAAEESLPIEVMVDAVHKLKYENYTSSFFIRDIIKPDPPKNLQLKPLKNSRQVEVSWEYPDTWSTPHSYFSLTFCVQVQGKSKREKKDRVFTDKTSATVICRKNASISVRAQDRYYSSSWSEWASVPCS
T1 sequence 2: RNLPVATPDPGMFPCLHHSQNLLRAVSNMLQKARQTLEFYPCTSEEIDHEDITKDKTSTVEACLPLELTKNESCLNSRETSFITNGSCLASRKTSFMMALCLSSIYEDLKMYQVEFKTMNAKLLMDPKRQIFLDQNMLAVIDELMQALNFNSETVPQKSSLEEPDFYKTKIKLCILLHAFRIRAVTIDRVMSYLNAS
Method: Approximately 5000 RU of goat anti-mouse IgG, (Fcγ), fragment specific polyclonal antibody (Pierce Biotechnology Inc, Rockford, Ill.) diluted in 10 mM sodium acetate (pH 4.5) was directly immobilized across a CM5 research grade biosensor chip using a standard amine coupling kit according to manufacturer's instructions and procedures at 25 μg/ml. Unreacted moieties on the biosensor surface were blocked with ethanolamine. Modified carboxymethyl dextran surface in flowcell 2 and 4 was used as a reaction surface. Unmodified carboxymethyl dextran without goat anti-mouse IgG in flow cell 1 and 3 was used as the reference surface. For kinetic analysis, rate equations derived from the 1:1 Langmuir binding model were fitted simultaneously to association and dissociation phases of all eight injections (using global fit analysis) with the use of Biaevaluation 4.0.1 software. Purified antibodies were diluted in HEPES-buffered saline for capture across goat anti-mouse IgG specific reaction surfaces. Mouse antibodies to be captured as a ligand (25 μg/ml) were injected over reaction matrices at a flow rate of 5 μl/min. The association and dissociation rate constants, kₒₙ (unit M⁻¹ s⁻¹) and koff (unit s⁻¹) were determined under a continuous flow rate of 25 μl/min. Rate constants were derived by making kinetic binding measurements at ten different antigen concentrations ranging from 10-200 nM. The equilibrium dissociation constant (unit M) of the reaction between mouse antibodies and recombinant purified human IL-12 p70 or recombinant purified human IL-12 p40 was then calculated from the kinetic rate constants by the following formula: KD=koff/kₒₙ. Binding is recorded as a function of time and kinetic rate constants are calculated. In this assay, on-rates as fast as 10⁶M⁻¹ s⁻¹ and off-rates as slow as 10⁻⁶ can be measured. […]

[2] = target: T1, recombinant purified human IL-12 p70; assay: cell-based or functional assay
[3] = target: T2, recombinant purified cyno IL-12 p70 (cynomolgus monkey); assay: cell-based or functional assay
T2 chain 1: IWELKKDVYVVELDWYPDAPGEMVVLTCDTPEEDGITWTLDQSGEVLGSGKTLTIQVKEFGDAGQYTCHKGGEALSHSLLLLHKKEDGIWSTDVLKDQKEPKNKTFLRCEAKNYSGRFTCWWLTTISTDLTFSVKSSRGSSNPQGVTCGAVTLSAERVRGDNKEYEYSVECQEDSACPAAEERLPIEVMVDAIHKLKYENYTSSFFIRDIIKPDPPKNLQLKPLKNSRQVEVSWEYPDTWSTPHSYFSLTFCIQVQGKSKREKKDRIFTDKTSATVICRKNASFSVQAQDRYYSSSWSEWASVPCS
T2 chain 2: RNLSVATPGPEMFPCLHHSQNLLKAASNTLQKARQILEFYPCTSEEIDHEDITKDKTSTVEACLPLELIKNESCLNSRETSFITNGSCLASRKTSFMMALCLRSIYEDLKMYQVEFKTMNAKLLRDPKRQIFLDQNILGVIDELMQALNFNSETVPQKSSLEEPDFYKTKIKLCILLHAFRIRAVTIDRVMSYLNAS

Kd [1]: < 0.01 nM
kon [1]: 530000 M⁻¹ s⁻¹
Av. IC50 (nM) huIL-12, PHA blast assay [2]: 0.035 nM
B1: anti-IL-12p40 humanized antibody 1D4.9 (antibody, human IgG1, kappa)
heavy: EVTLRESGPALVKPTQTLTLTCTFSGFSLRKSVMGVSWIRQPPGKALEWLAHIYWDDDKYYNPSLKSRLTISKDTSKNQVVLTMTNMDPVDTATYYCTRRGIRSAMDYWGQGTTVTVSSASTKGPSVFPLAPSSKSTSGGTAALGCLVKDYFPEPVTVSWNSGALTSGVHTFPAVLQSSGLYSLSSVVTVPSSSLGTQTYICNVNHKPSNTKVDKKV[skipping human IgG1 Fc with changes]
light: DIVMTQSPDSLAVSLGERATINCKASQSVSNDVAWYQQKPGQPPKLLIYYASNRYTGVPDRFSGSGYGTDFTLTISSLQAEDVAVYYCQQDYNSPWTFGGGTKVEIKRTVAAPSVFIFPPSDEQLKSGTASVVCLLNNFYPREAKVQWKVDNALQSGNSQESVTEQDSKDSTYSLSSTLTLSKADYEKHKVYACEVTHQGLSSPVTKSFNRGEC
notes: Back-mutated CDR-grafted antibody; COS cells

Kd [1]: < 0.01 nM
koff [1]: < 1e-05 s⁻¹
kon [1]: > 100000 M⁻¹ s⁻¹
Av. IC50 (nM) huIL-12, PHA blast assay [2]: 0.014 nM
Av. IC50 (nM) cyno IL-12, PHA blast assay [3]: 0.031 nM
B2: anti-IL-12p40 humanized antibody 1D4.7 (antibody, human IgG1, kappa)
heavy: EVTLRESGPALVKPTQTLTLTCTFSGFSLRKSVMGVSWIRQPPGKALEWLAHIYWDDDKYYNPSLKSRLTISKDTSKNQVVLTMTNMDPVDTATYYCTRRGIRSAMDYWGQGTTVTVSSASTKGPSVFPLAPSSKSTSGGTAALGCLVKDYFPEPVTVSWNSGALTSGVHTFPAVLQSSGLYSLSSVVTVPSSSLGTQTYICNVNHKPSNTKVDKKV[skipping human IgG1 Fc with changes]
light: B1 light with I2V
notes: as for B1
